In ChEMBL document CHEMBL5724801, “EUbOPEN Chemogenomics Library - Multiplex” (2024):
Not every entry of the source has a single result; some have several. The other results are left out here. An entry can have further records. Values that stand side by side are repeats (runs, samples, wells, individuals or studies). Marks such as [2022-09] give the month of the run.

Key:
Assay type in all cases: toxicity, cell-based
Fibroblast = assay: Multiplex assay against human fibroblast
Procedure, shortened: (§1)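 Hoechst33342, BioTracker Green Microtubule Cytoskeleton Dye, MitoTracker Red and Annexin V Alexa Fluor 680 were added to live cells at seeding, and imaging on a CQ1 microscope at 37°C and 5% CO2 followed compound addition. Gating by CellPathfinder machine learning separated cells into Hoechst high-intensity objects or normal cells, then normal cells into healthy, pyknosed or fragmented nuclei, then pyknosed cells into mitotic or apoptotic. Per cents of healthy-nucleus cells are reported for the tubulin, mitochondrial-mass and membrane-permeability phenotypes.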

HEK-293T = assay: Multiplex assay against HEK293T; settings: human; procedure, shortened: as §1
U2OS = assay: Multiplex assay against U2OS; settings: human; procedure, shortened: as §1
[1] = 12 h, 1 µM, compound concentration 1 uM
[2] = 12 h, 10 µM, compound concentration 10 uM
[3] = 24 h, 1 µM, compound concentration 1 uM
[4] = 24 h, 10 µM, compound concentration 10 uM
[5] = 48 h, 1 µM, compound concentration 1 uM
[6] = 48 h, 10 µM, compound concentration 10 uM

## Cc1cc(O)c(-c2ccc([C@@H](C)CN(C)C)cc2)c2c1[nH]c(=O)c1sccc12
Fibroblast; [1]
  Population Apoptotic (%): 59% and 50% and 16.13%, 27.59% [2024-01]
  Population Fragmented Nuclei (%): 12% and 22% and 11.76%, 4.76% [2024-01]
Fibroblast; [2]
  Population Fragmented Nuclei (%): 19% and 28% and 12.18%, 3.75% [2024-01]
Fibroblast; [3]
  Population Apoptotic (%): 45% and 52% and 14.63%, 15.38% [2024-01]
  Population Fragmented Nuclei (%): 11% and 28% and 10.71%, 6.94% [2024-01]
Fibroblast; [4]
  Population Fragmented Nuclei (%): 11% and 30% and 12.5%, 3.83% [2024-01]
Fibroblast; [5]
  Population Fragmented Nuclei (%): 19% and 31% and 22.29%, 5.38% [2024-01]
  Population Membrane Permeable-Phenotype (%): 1% and 2% and 4.65%, 19.39% [2024-01]
Fibroblast; [6]
  Population Fragmented Nuclei (%): 17% and 39% and 14.52%, 3.21% [2024-01]
  Population Pyknosed Nuclei (%): 29% and 16% and 40.32%, 48.66% [2024-01]
HEK-293T; [1]
  Population Apoptotic (%): 63% and 59% and 11.11%, 10.57% [2024-01]
  Population Fragmented Nuclei (%): 14% and 8% and 0.48%, 2.14% [2024-01]
  Population Healthy Nuclei (%): 49% and 66% and 25.96%, 10% [2024-01]
  Population Hoechst High Intensity Objects (%): 27% and 28% and 0% [2024-01]
  Population Mitochondria Different-Phenotype (%): 90% and 91% and 44.44%, 7.14% [2024-01]
  Population Pyknosed Nuclei (%): 36% and 25% and 73.56%, 87.86% [2024-01]
HEK-293T; [2]
  Population Apoptotic (%): 53% and 70% and 21.18%, 37.21% [2024-01]
  Population Healthy Nuclei (%): 44% and 60% and 21.88%, 7.8% [2024-01]
  Population Hoechst High Intensity Objects (%): 41% and 28% and 0% [2024-01]
  Population Mitochondria Different-Phenotype (%): 100% and 94% and 38.78%, 27.27% [2024-01]
HEK-293T; [3]
  Population Healthy Nuclei (%): 60% and 70% and 34.65%, 11.03% [2024-01]
  Population Pyknosed Nuclei (%): 30% and 19% and 62.72%, 86.03% [2024-01]
HEK-293T; [4]
  Population Healthy Nuclei (%): 67% and 69% and 24.88%, 5.33% [2024-01]
  Population Hoechst High Intensity Objects (%): 36% and 25% and 0.48%, 0% [2024-01]
  Population Pyknosed Nuclei (%): 24% and 23% and 74.16%, 93.33% [2024-01]
HEK-293T; [5]
  Population Fragmented Nuclei (%): 13% and 16% and 3.92%, 1.48% [2024-01]
  Population Healthy Nuclei (%): 65% and 67% and 36.76%, 13.33% [2024-01]
  Population Pyknosed Nuclei (%): 20% and 16% and 59.31%, 85.19% [2024-01]
HEK-293T; [6]
  Population Healthy Nuclei (%): 64% and 58% and 30.77%, 5.67% [2024-01]
  Population Hoechst High Intensity Objects (%): 40% and 34% and 0.48%, 0% [2024-01]
  Population Pyknosed Nuclei (%): 20% and 28% and 66.83%, 94.33% [2024-01]
U2OS; [1]
  Population Fragmented Nuclei (%): 38% and 25% and 4.49%, 7.74% [2024-01]
  Population Membrane Permeable-Phenotype (%): 21% and 9% and 4.57%, 6.67% [2024-01]
  Population Mitochondria Different-Phenotype (%): 17% and 14% and 0.57%, 15.24% [2024-01]
  Population Mitotic Cells (%): 19% and 30% and 61.79%, 54% [2024-01]
  Population Pyknosed Nuclei (%): 12% and 11% and 39.42%, 29.76% [2024-01]
  Total Cell Count: 252 and 89 and 313, 168 [2024-01]
U2OS; [2]
  Population Fragmented Nuclei (%): 28% and 20% and 1.74%, 2.82% [2024-01]
  Population Membrane Permeable-Phenotype (%): 54% and 22% and 5.1%, 24.32% [2024-01]
  Population Mitochondria Different-Phenotype (%): 62% and 61% and 6.12%, 40.54% [2024-01]
  Total Cell Count: 222 and 110 and 344, 142 [2024-01]
U2OS; [3]
  Population Fragmented Nuclei (%): 43% and 41% and 12.37%, 15.15% [2024-01]
  Population Membrane Permeable-Phenotype (%): 20% and 15% and 2.22%, 7.32% [2024-01]
  Population Mitochondria Different-Phenotype (%): 25% and 21% and 2.22%, 19.51% [2024-01]
  Population Mitotic Cells (%): 7% and 0% and 54.76%, 39.39% [2024-01]
  Population Pyknosed Nuclei (%): 21% and 17% and 72.16%, 60% [2024-01]
  Total Cell Count: 256 and 83 and 292, 165 [2024-01]
U2OS; [4]
  Population Fragmented Nuclei (%): 36% and 40% and 7.47%, 6.92% [2024-01]
U2OS; [5]
  Population Fragmented Nuclei (%): 53% and 64% and 13.81%, 12.35% [2024-01]
  Population Hoechst High Intensity Objects (%): 17% and 15% and 0.37%, 1.16% [2024-01]
  Population Membrane Permeable-Phenotype (%): 23% and 35% and 12.5%, 3.57% [2024-01]
  Population Mitochondria Different-Phenotype (%): 25% and 35% and 8.33%, 3.57% [2024-01]
  Population Mitotic Cells (%): 3% and 0% and 27.05%, 16.53% [2024-01]
  Population Pyknosed Nuclei (%): 27% and 15% and 77.24%, 71.18% [2024-01]
U2OS; [6]
  Population Fragmented Nuclei (%): 50% and 54% and 7.3%, 4.1% [2024-01]
  Population Hoechst High Intensity Objects (%): 20% and 15% and 1.08%, 0.81% [2024-01]
  Population Membrane Permeable-Phenotype (%): 25% and 64% and 5.13%, 8.33% [2024-01]

## COCCn1c(C)c(C)s/c1=N\C(=O)C1C(C)(C)C1(C)C
Fibroblast; [2]
  Population Membrane Permeable-Phenotype (%): 1% and 13%
HEK-293T; [2]
  Population Fragmented Nuclei (%): 33% and 8%
  Total Cell Count: 80 and 315
HEK-293T; [4]
  Total Cell Count: 101 and 376
U2OS; [6]
  Population Mitotic Cells (%): 18% and 4%
